Test results as given in the supplement of paper PMC11417369.
This is one part of the list.

System: PfAP2-HC AP2 domain (GST-tagged)
Experiment: gcPBM binding intensity (ln(normalized median fluorescence intensity)); higher = stronger DNA binding
Method in brief: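 The binding buffer was 1× PBS containing 1% milk, 0.2 mg/ml BSA, 0.5% salmon testes DNA and 0.03% Triton X-100. In it, GST-tagged P. falciparum DNA-binding domains expressed in E. coli were applied for 1 h to an Agilent 4 × 180k array of primer-extended double-stranded 36-bp intergenic genomic probes plus negative controls. Binding intensity, read with Alexa488 anti-GST antibody and a 488 nm scan, is the highest Masliner-normalised natural-log median intensity across replicate spots of either probe orientation.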

Sequence	gcPBM binding intensity (ln)
ATATATATAAACAAAAGTACATATATAAATTCATTT [XGTACX_site3482]	9.63
TCTTATATTATATTGTGTATTAAAATTTAACTTCAA [TGCATGCA_negctrl_site565]	9.57
TTAAAGTTACATTCGACACACACATAACAACTAAAT [CACACA_site9130]	10.1
AATAAAAAAAAAATATATATTTTTTTTTTTTTTTTT [CACACA_negctrl_site54]	9.4
ATCTATTCACACTTTTAAAAATTAAATATATTATAT [TGCATGCA_negctrl_site610]	9.58
TAATTTTTTTTTTATAGTACACATATTAAAGAATTA [XGTACX_site2485]	9.31
ATAAGAAGAAGAAAAACACACATATGTAGATATATA [CACACA_site7469]	9.86
ATATATATATATATATGTACTTATTTATATATTTAT [XGTACX_site7811]	9.5
GTATATATTAAAAAAAAAAAAAAAAAATTAAAATTA [CACACA_negctrl_site572]	9.24
GGAATATTAATAAGAGTGCATTTTGTATTCAATATG	9.59
AAAAAAAAAATTCATTGTACATATATATATATATAT [XGTACX_site8346]	9.63
TAGACTGGACATTAATGTACATAAATATATATGTAT [XGTACX_site7726]	9.71
TATAAGAAAAATAACACACACATAAACATATATACA [CACACA_site2785]	10.3
TTATTGTACTTGCTCGCATGCAATAAAAATATATTA [TGCATGCA_site580]	9.43
ATGCTTCCTTAGGAATGTACACACATATATAATATG [XGTACX_site873]	9.82
ATAAAAATAAAAAACTGTACATACAAGATGTTACAG [XGTACX_site6690]	9.6
AAATAATATTTTACATGTACATAATAATTATTGGAT [XGTACX_site2783]	9.62
TAAATATTTAAATATTGTACTAGGTATAATTGAATA [XGTACX_site3604]	9.6
ATATTGTATTATCTTTATGTACCAAAAAAAAAAAAA [CACACA_negctrl_site1036]	9.22
ATTATTAATAATTGTGTGCACAAATATTTATATGCT	9.93
ATATCAATATAAAGTACACACTATAGTATGTATTAT [CACACA_site5286]	10.1
TTTATACAATTAGACACACACAAAAAGTATATATAT [CACACA_site1082]	10.2
CATTCAAAGAAAAACTGTACGTGTAGCAAACGTCAT [XGTACX_site2576]	9.63

Sequence	gcPBM binding intensity (ln)
ATATAATTACATTGATGTACACGAAATGATTAACAT [XGTACX_site5183]	9.73
ATGGGTATATTTCCACGTACAAAAAATCCGAATTGC [XGTACX_site1490]	9.45
ATGAACATACAATATACACACATATAGATTTATATT [CACACA_site6524]	9.87
TCATTATTAATATGTAGTACATTATATGATATGTAT [XGTACX_site8978]	9.64
TTCTTTTTAAATTACACACACATATATATCTGTATA [CACACA_site5863]	10.1
TAAAGGATTTTCGAAGCATGCCACCTGTGACATACT [TGCATGCA_site130]	9.33
TACATACATACATACACACACATATATATATATATA [CACACA_site1944]	10
ATTTTTTCATATTCTACACACGTGAACAAATGAGTC [CACACA_site5635]	9.67
AACAGACAAAGACACACACACATACATACATACATA [CACACA_site6351]	10.4
TATCATATTTTTATATGTACATAACATAAAAAAAAA [XGTACX_site2152]	9.3
TGATTTGTGCCGATTTGTACACATTTATATATATAT [XGTACX_site2154]	9.91
AGAAAGAAAATATATACACACAAAAAAAAATATATA [CACACA_site1412]	9.93
TTTTTTTTATGTATCACACATAATTTTTTATTATGA [CACACA_site5534]	9.66
ATAATAACAAGGCGCTGTACTGTACCGTTTTTCATA [XGTACX_site6135]	9.79
CATCCACAAATATGTACACACATATATAAATATGTA [CACACA_site7407]	9.8
CAATGTTAACATATTACACACATATGTATATATAAT [CACACA_site8878]	9.99
GACAACTCTTTTCATACACACAAAAAAAAAAAAATA [CACACA_site2361]	9.72
TCACATATATATTAATGTACATATATTTTTTATGTA [XGTACX_site5125]	9.85
GATATATCCTATGTTATTTTTATGGTGTAATTTAGT [XGTACX_negctrl_site112]	9.85
TTTTTTTTCTCACAAAAAATAATTAACAAAAAGGAA [XGTACX_negctrl_site154]	9.27
GGCATGACTATCTGCACACATAAAAATAAGAAATAC [CACACA_site841]	9.88
GATTTATACAAATATGTACACACTAATTATATATTA [CACACA_site8045]	9.92
TAAAAAAAAAAAAAAAGTACAAAAAAAATATTTTTT [XGTACX_site7941]	9.3

Sequence	gcPBM binding intensity (ln)
ATATGCTATTTACTAGTGCAAAATATTTAAAATATG [GTGCAC_site9517]	9.57
GTTGCACAATGTTACACACACAATATAGATCGTTAA [CACACA_site6717]	10
TTAATATAAGCAAATACACACACACCGATATATATA [CACACA_site9269]	11.1
ATAAAAAAAAAAAATACACACATATATTTATTTATA [CACACA_site6903]	9.71
TTTATATGGATTTTTTTTTAATATTTCTTTTAATTT [TGCATGCA_negctrl_site361]	9.48
TGATTCTAACTTATGGTGCAACATTATGGACACCGT	9.44
TTAATATTGTTATAGCGTACAAATAAACATATTAAA [XGTACX_site8153]	9.47
TTACATATTTATGATTGTACACATTTATAAACAATA [XGTACX_site2190]	9.34
TATTTAAAAATAAAATGTACATATTATTATGCATTA [XGTACX_site1303]	9.54
ATAATAATAAAGTGAACACACACATATAATATATAT [CACACA_site9378]	10.1
TGGTAACAGCATAGAAAATGGACAAACGAAATATAA [GTGCAC_negctrl_site537]	9.72
TAAATAAACAAATTAACACACAGAATTTTTTTTTTC [CACACA_site1674]	9.76
AATGTTAAGGAGGGGAGTACATAAAATTCTCTCTCC [XGTACX_site1990]	9.4
AAAAGCTATAAAAATCGGTAATTTATAACAGGAATT [CACACA_negctrl_site469]	9.67
ATTATGTACTATTATACACACGTTTAATTGTAAATT [CACACA_site4278]	9.79
TAAAAATGTGGACACACACACATATATATATTTAAT [CACACA_site4941]	10.2
TTTCTAATTATTTCCCTTCAAATATATTAATATCGT [CACACA_negctrl_site429]	9.55
ATATATATTATTATATGTACATATAAATATATTAAT [XGTACX_site5270]	9.53
ATATTGTAAGTAAAATGTAATAAATATAATAAAATA [CACACA_negctrl_site697]	9.76
TTAGTATATACATTTGCACACATTATTTTTTAACAT [CACACA_site2618]	10
AAAAGGAAAATACTAGCACACAATATATAATAAACA [CACACA_site285]	9.95
TCCTTGCATTTTAAAACACACAAAAATTAATTGTTA [CACACA_site7152]	9.56
ATTTTATAAACAAATGAACACACAAACATATATATA [CACACA_site9036]	9.97

Sequence	gcPBM binding intensity (ln)
TACATACATAAACACACACACACATATATATATATA [CACACA_site8953]	10.5
ATCAAAAGAAAACACACACACATACATATATATATA [CACACA_site3795]	11.1
ATTTGTGTATATTAGAGTACATAAAATTAGAGGAAC [XGTACX_site1654]	9.86
CATTAATGACATGATTGTACATAAGCTTTTTTACAT [XGTACX_site1888]	9.73
ACCCATTCAAATTTCGCACACACATACAAAAAAAAA [CACACA_site3094]	10.1
TTCATATATTATTATGCATGTTCATAAATTATCTAA [TGCATGCA_site896]	9.57
TTCATATAATTATATACATGCATAAATTCTAAGTAA [TGCATGCA_site622]	9.49
TAAAATAATACAAAATGTACAAAATTTACAAAATGT [XGTACX_site3541]	9.81
ATGTAAATTAAACATGGTACACATTATACAAAATTA [XGTACX_site5675]	9.77
AATATAGAACAATGTTGTACATATAATAATCTTATA [XGTACX_site4671]	9.68
AACGATATCTGTACTACACACATTATGTCATCCTAT [CACACA_site5374]	10.3
ATTAACACTGAAAAATGTACATATATAAATATAAGC [XGTACX_site8222]	9.79
AATATTAAAAACAAAACACACAAAAAAAAATAAACT [CACACA_site6470]	10.2
AGCACACCCACAAAAACACACACAAAGGTGTTCTTA [CACACA_site8355]	10.5
TCATTATTATTCCTCACACATATATATATATATATT [CACACA_site4375]	10
CACTTTTCATATATGACACACAAAAAATTAATAAAA [CACACA_site3639]	9.72
GCATGTATAATGGTAGTGCATATAATAATATAATAA [GTGCAC_site9548]	9.85
TAATAATAAAAATAAACACACATATAGATGTATATA [CACACA_site7360]	9.77
ATTTTGTTCGAAAGGTGTACATATACAAAAATTATG [XGTACX_site957]	9.67
ATTGCTTTTCTTTTTGCACACTTATGCATATATATA [CACACA_site2584]	9.97
